# Some of the results follow.
# T1: UNK ZnF1-3 (human, UniProt Q9C0B0 31-174)
# T1 sequence: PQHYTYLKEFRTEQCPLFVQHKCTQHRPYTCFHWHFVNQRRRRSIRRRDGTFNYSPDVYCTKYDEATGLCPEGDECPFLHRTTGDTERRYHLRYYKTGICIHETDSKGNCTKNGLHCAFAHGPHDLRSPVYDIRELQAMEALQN
# B1: chrX:45560084:45560085:-_ENSMUSG00000036985_ENSMUST00000037960|mus_mus|FALSE|FALSE (ssRNA)
# RNA: GGGAGUUCUACAGUCCGACGAUCGGGACUACUCGAGAGAAGAUGCAGAGGCUGAGGUCAGCUUUAAAAUCAGGUCGUCUACUAGUGUUGCCACUGGGUCAAACAUUAUCAAGAGCCCUGAACAAGGGACACUGAACUCGGCCGCAACAGAGGAUUGAGCAUCA
# B2: chr10:33214929:33214930:-_ENSG00000150093_ENST00000302278|hu_hu|hu_hu_hu_mus_True|28_28 (ssRNA)
# RNA: GGGAGUUCUACAGUCCGACGAUCAACAAGUUCAUUGAAAAACUCUCCUCUGUCAGUAAGACUAAGCACAUUUUUGUAGCUAAAUGGGCUGGUGCAGUUUUGUUCACUUGUGCAAGGAUUUCUUAGCUUUGCUGGGGUUGUGCUCAACAGAGGAUUGAGCAUCA
# B3: chr8:47723363:47723364:+_ENSMUSG00000031628_ENSMUST00000093517|mus_mus|motif|central (ssRNA)
# RNA: GGGAGUUCUACAGUCCGACGAUCGGAGAAGGACUCGAAUUCCGUUGCCACCUUCCUGUUAACGCGAGUGAGAAUGUGCAUAAAUUCGGGCUUGUGCGCGUACAGCUUCAGCAUGCUGCAAAGGGACUGGAUGAACCACGACCCCAACAGAGGAUUGAGCAUCA
# B4: chr8:104447970:104447971:+_ENSG00000164934_ENST00000297579|hu_mus|FALSE|FALSE (ssRNA)
# RNA: GGGAGUUCUACAGUCCGACGAUCAUACACUUCCCUGCUUCGGCUCUUGUCCACAGGAAAGAUUCUAAUAGACUUAUCAAAGCUGGCAGACACAAAUUCCUUCCCAGUGGGAGAGUAGUCCACAUCAAGUACUGCAGACACGUGCAACAGAGGAUUGAGCAUCA
# B5: chr1:74301520:74301521:+_ENSMUSG00000006304_ENSMUST00000006467|perfect_dup|motif|central (ssRNA)
# RNA: GGGAGUUCUACAGUCCGACGAUCGAAGACUACUGUGACUCUGUCCUUUUUAGACUCAACAUACAUGGUCUCAUCAUCCCGGUAAUGGAUAACUGCCCUGUUCUCUCCUUCCUUGCCCUCUUCUUGGAAUUGGAAGUAUUUUUCCAACAGAGGAUUGAGCAUCA
# B6: chr8:47717725:47717726:+_ENSMUSG00000031628_ENSMUST00000093517|mus_mus|FALSE|FALSE (ssRNA)
# RNA: GGGAGUUCUACAGUCCGACGAUCGAAGUUCUUAUUAUUAAUUAUUAUGCAUAUGCCCAUUUCAGGAUAAUCCAUUUUGUAACUACUGUCCAGAUAGAUCCCAGAGUCCACUGACUUGCUCCCAUGUAUGGUCUUUACUUCAAACAACAGAGGAUUGAGCAUCA
# B7: chrX:71099370:71099371:-_ENSMUSG00000031391_ENSMUST00000102871|mus_mus|motif|central (ssRNA)
# RNA: GGGAGUUCUACAGUCCGACGAUCUUUAUUUUUCGUGGAGUAGGGUCAUCAAAGCUAACUGCUAUAAAAUGGAGAAACCACCGGGAGACUCAGACAUCUGCCUACACACUAGUGGCAUAUGGGGAAAGGGCAACGGCACAAACUCAACAGAGGAUUGAGCAUCA
# B8: chr15:44268054:44268055:+_ENSMUSG00000022338_ENSMUST00000060652|mus_hu|motif|central (ssRNA)
# RNA: GGGAGUUCUACAGUCCGACGAUCUCCAGUUAGUGAGGCAGAGGGCCCUGGAGGGAGCCCUAGGAAACACCAUUAUCGGCAAGUCCCAGACAGCAAAAGGUACUCCACAAGAAACAGAAGGAACUUCCAGUGGUAGCAAAAGCACAACAGAGGAUUGAGCAUCA
# B9: chr7:65705844:65705845:+_ENSG00000169902_ENST00000304842|hu_mus|hu_hu_hu_mus_False|68_68 (ssRNA)
# RNA: GGGAGUUCUACAGUCCGACGAUCAAACGGAUCUUUGUUACAUAAAUAAGGUGCCGGCUCCCCAUGUUUAACGAUAACCUCCAGAAGGAAGGCUUGCAUGGCAGAAUCUAGCACUUCAUCUGUGACACCCGCCUCAUCCAAGCGCAACAGAGGAUUGAGCAUCA
# B10: chr2:126738436:126738437:-_ENSMUSG00000027366_ENSMUST00000028844|mus_mus|motif|central (ssRNA)
# RNA: GGGAGUUCUACAGUCCGACGAUCAGGCACGGAGCAUACACUCAUGACUGAGUAACCCAUCAGUUUUGGCACCCUGAUAACGGCUGGCAACUUUUCAGCAUUCUCGAAAGGCCCAGCAGCAAGUUCCACCAUGAUGCUCUCACCCAACAGAGGAUUGAGCAUCA
# B11: 100204466_100206563_1624_CDS_ENSG00000125304_ENST00000376387|human|control|control (ssRNA)
# RNA: GGGAGUUCUACAGUCCGACGAUCAAUGGCAUUCUUCUUAAAACCAAAGUAUGCACCAAUAAACGUCAGAGGCACAGAUAUGCAGAACCAAAGGGCCAAUAUGGCAACCAGUGUCCCAAAAGGAAUAGCUGCUGAAGAUCCUUCCAACAGAGGAUUGAGCAUCA
# B12: chr2:27535424:27535425:-_ENSG00000115204_ENST00000380044|hu_hu|FALSE|FALSE (ssRNA)
# RNA: GGGAGUUCUACAGUCCGACGAUCUUUGGCCCAGUUGUCCUGGGCUGACAGUCCAUUAAGUGCCCCUACCAGUGGGAGAAAGCAGCCUAGAAAACACGGGGCAAAGCCCCCCUGAUCCAACAACAUCUUCUUCAGUGCAUCCACCAACAGAGGAUUGAGCAUCA
# B13: chr1:52766434:52766435:-_ENSMUSG00000041439_ENSMUST00000156876|mus_hu|FALSE|FALSE (ssRNA)
# RNA: GGGAGUUCUACAGUCCGACGAUCGACCUUGGAAAUUAGAAGAUCGUUGUUUAUCUUAACACAAUGUUUCUCUAUCCAGUCUAUUUCCUCCUCAGGAAUAGCAGAUGUUUCUGUGGAGGAAGGUGUUUCAUUCGAAGGUGGUUCCAACAGAGGAUUGAGCAUCA
# B14: chr17:74721675:74721676:-_ENSG00000070495_ENST00000397625|hu_mus|FALSE|FALSE (ssRNA)
# RNA: GGGAGUUCUACAGUCCGACGAUCGUCUUCCAAAAGUUUCCUUCUUUUGGGGUGUUCGCCAUAGCUGCUAUCGAAGAUGUAAAGGGGACUGUCAUCGCGGGUGCUCUCCAUGUACUCGAUGUAGUACUUCAUCUUCAUCUUAACCAACAGAGGAUUGAGCAUCA
# B15: chr9:139297273:139297274:-_ENSG00000165689_ENST00000371725|hu_hu|FALSE|FALSE (ssRNA)
# RNA: GGGAGUUCUACAGUCCGACGAUCAACACCCAGGGGUCCUCAAGAGUCUUCCUCCUCGUCUUUAACUUCAGAAAUUCUGUCUAUAGAUUUAAGGAUUUCGGCAACAAGAUUCAGUGUCUCAGCUCCGGAAACCAGUUGCUUGAUCAACAGAGGAUUGAGCAUCA
# B16: chr12:48362563:48362564:+_ENSG00000134291_ENST00000256686|hu_hu|hu_hu_hu_mus_False|8_78 (ssRNA)
# RNA: GGGAGUUCUACAGUCCGACGAUCUCCGUCAAGCCCUUCGAUAGACCCUUGCGGGGGUGGUAAAAACCACUUUGUAUGGGGAAGGAAAAGAAACGCCAAAAACUUUCCAAAAAGCGGGGGUGGGGUGUCCCAGGCCUGGGAGGUCAACAGAGGAUUGAGCAUCA
# B17: chr12:109046171:109046172:-_ENSG00000110880_ENST00000261401|hu_hu|FALSE|FALSE (ssRNA)
# RNA: GGGAGUUCUACAGUCCGACGAUCCUUGCUGCUGAAUGUGUUGAGGUAGUGGACGUACGGGGAUUCAUCCGUGAUCUCAAAAUAGCGAAUACUGCUGUCACCCUUUCCACAUAAGUAAAUGAUGCUGGUGUCAGGGUCAUAGAACAACAGAGGAUUGAGCAUCA
# B18: 66026368_66029666_3773_CDS_ENSMUSG00000034848_ENSMUST00000102718|mouse|control|control (ssRNA)
# RNA: GGGAGUUCUACAGUCCGACGAUCGGCCGCAUCUGUGUAUGCUUGCUCUUUCUCCAUAAUGUACCCCAUAUAUUCAUAAGCUUUGCAGCAGGACCGGUUAUGGCAGAGACACCGCUUUAGUAAUUCCUCUGCCAUGUCAUAUUUCAACAGAGGAUUGAGCAUCA
# B19: chr3:41281661:41281662:+_ENSG00000168036_ENST00000349496|hu_hu|motif|central (ssRNA)
# RNA: GGGAGUUCUACAGUCCGACGAUCCCUGCUUAUUUUAAGCAUAUUAAAAAGGAAACUAAUUGGACCAUUUUCUAUUUGUCGGUUUUAUACAAAAAGGCUACACAAUUGUUACACUUUAUUCAGAUUACAAUUAAUUAGAGUGAUCAACAGAGGAUUGAGCAUCA
# B20: chr11:93807532:93807533:+_ENSMUSG00000059474_ENSMUST00000107854|mus_hu|motif|central (ssRNA)
# RNA: GGGAGUUCUACAGUCCGACGAUCCAGUACAUUUUGAACCGUAAAAGAGAAUGGGGCGAUUGAGUUGUACAACUGGAGUUAUGGCGGAGACAUAAAUCUCCUCUGCAUUAAUUAUUUUUCGGUUCGUCGGCAGUAGGAGUUAGUCAACAGAGGAUUGAGCAUCA
# B21: chr16:94664741:94664742:+_ENSMUSG00000040785_ENSMUST00000117648|mus_hu|mus_mus_mus_hu_False|8_38 (ssRNA)
# RNA: GGGAGUUCUACAGUCCGACGAUCUGGUACUGAUCUUGGUAGCUGAUAUUCAGGAGAAAGGCUGGCCAAGGGUGUAUAUAUGCUGGUGUACUGGGGCAGGCUAGGUAACACGUUUAUGUAUGCUGGCCGCUGGGUGAUGAUAUCCAACAGAGGAUUGAGCAUCA
# B22: chr7:77256914:77256915:+_ENSG00000127947_ENST00000248594|hu_hu|FALSE|FALSE (ssRNA)
# RNA: GGGAGUUCUACAGUCCGACGAUCUAUAUUAUGUCUAGCAAUGGACAUUGGCAAUACUUUCCUAGUAGAAAUGCUUUCAGUACUAGUGGCAGCAGAAACUGUGGCACUUGCUGUUGAAAUAUUAGUUUUAUUCUGGGUCACAGCCAACAGAGGAUUGAGCAUCA
# Biological target: T1, UNK ZnF1-3
# Test: nsRBNS (natural sequence RNA bind-n-seq); RBNS binding buffer (assumed for nsRBNS): 25 mM Tris pH 7.5, 150 mM KCl, 3 mM MgCl2, 0.01% Triton X-100, 500 ug/ml BSA, 20 U/ml SUPERase-In, 4 C; UNK is unkempt and MSI1 is Musashi-1; names of the RNAs are library labels; protein concentration not given here; high values mean tight binding
row,Binder,binding signal [enrichment R]
1,B1,1.18
2,B2,0.709
3,B3,1.2
4,B4,1.04
5,B5,0.602
6,B6,1.06
7,B7,1.81
8,B8,1.7
9,B9,0.365
10,B10,1.21
11,B11,1.2
12,B12,1.19
13,B13,0.48
14,B14,0.681
15,B15,1.24
16,B16,1.75
17,B17,1.17
18,B18,0.704
19,B19,0.975
20,B20,1.08
21,B21,1.37
22,B22,1.32

# From article PMC12136788
